The whole screen tested about 350,000 compounds, of which about 31,000 (8.9%) were called active. This list was built around the results that the source calls inconclusive (neither active nor inactive); the mix of calls is not that of the screen. Calls follow the shape of the dose curve; as a rule, active = well fitted inhibition curve with a large enough effect; inconclusive = small, poorly fitted or top-dose-only effect; inactive = no such curve, though single readings can be large or run the other way. Potencies of inconclusive entries are doubtful fits and often do not repeat.
target: Histone-lysine N-methyltransferase EHMT2 (Homo sapiens) (UniProt Q96KQ7); assay: qHTS Assay for Inhibitors of Histone Lysine Methyltransferase G9a; settings: G9a H3K9 monomethylation, AlphaScreen, 2 h; activity, negative = inhibition: at 59 µM (top of the series) unless noted; also: nearly all actives have a fitted effect of over 75% in size
Sequence of UniProt Q96KQ7 (Q96KQ7 whole entry, looked up): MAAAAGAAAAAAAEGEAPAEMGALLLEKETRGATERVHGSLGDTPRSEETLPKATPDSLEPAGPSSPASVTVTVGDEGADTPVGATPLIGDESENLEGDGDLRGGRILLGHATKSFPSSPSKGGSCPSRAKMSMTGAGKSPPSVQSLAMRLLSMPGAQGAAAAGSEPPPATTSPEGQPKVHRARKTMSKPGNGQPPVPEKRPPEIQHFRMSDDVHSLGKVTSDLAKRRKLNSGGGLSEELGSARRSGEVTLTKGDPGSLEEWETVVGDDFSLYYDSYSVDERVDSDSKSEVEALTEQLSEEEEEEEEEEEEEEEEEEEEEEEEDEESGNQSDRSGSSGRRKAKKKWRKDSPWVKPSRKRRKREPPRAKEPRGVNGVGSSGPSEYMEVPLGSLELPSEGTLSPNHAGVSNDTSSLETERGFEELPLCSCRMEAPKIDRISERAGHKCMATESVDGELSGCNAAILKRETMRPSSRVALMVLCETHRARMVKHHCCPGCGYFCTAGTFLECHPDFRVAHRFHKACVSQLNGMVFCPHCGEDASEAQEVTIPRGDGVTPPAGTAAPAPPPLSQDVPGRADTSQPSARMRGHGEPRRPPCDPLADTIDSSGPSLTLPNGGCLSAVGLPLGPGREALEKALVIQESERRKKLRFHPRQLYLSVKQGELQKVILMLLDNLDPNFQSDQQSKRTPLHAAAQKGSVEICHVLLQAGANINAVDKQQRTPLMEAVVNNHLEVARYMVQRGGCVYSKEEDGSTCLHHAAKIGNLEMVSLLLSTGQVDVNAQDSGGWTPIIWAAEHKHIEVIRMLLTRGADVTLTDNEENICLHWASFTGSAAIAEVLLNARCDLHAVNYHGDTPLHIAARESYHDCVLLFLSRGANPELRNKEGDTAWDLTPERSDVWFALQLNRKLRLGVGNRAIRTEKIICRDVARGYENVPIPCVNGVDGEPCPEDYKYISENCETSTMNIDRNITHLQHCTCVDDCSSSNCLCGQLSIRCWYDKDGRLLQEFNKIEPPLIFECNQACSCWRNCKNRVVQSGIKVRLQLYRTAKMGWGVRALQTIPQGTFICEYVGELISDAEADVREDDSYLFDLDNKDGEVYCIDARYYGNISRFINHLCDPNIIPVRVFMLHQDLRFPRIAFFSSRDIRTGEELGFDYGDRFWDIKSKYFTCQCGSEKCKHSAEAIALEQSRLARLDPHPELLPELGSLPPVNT
Summary of the method: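 AlphaScreen detection with an anti-monomethyl H3K9 antibody quantified product after a 2 h room-temperature reaction containing 500 nM biotinylated H3K9 peptide, 20 µM SAM and 20 nM enzyme, which had been preincubated 15 min with compound.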
% is scaled to controls: 0 for no effect and ±100 for the full control effect; potency is read from the fitted curve at half-maximal effect; tags tell the direction and shape of the fitted curve.

Compound | Potency | activity, negative = inhibition
CC1=Nn2c(nc(-c3ccccc3)c2-c2ccccc2)NC(=O)C1Br (stereo not given) | inconclusive: 79.4 µM [inhibitor, single point] | –
COc1ccc(NC(=S)N/N=C2\CC(C)(C)Oc3ccc(OC)cc32)cc1 | inconclusive: 100 µM [inhibitor, single point] | –
COc1ccc(NC(=O)CC(C)NCCCN2CCCC2=O)cc1 (stereo not given) | active: 56.2 µM | –
CCOc1ccc(CC(=O)Nc2c3c(nn2C(C)(C)C)CS(=O)(=O)C3)cc1 | active: 79.4 µM | –
CCN(c1ccccc1)S(=O)(=O)c1ccc2[nH]c(=O)[nH]c2c1 | inconclusive: 79.4 µM [inhibitor, single point] | –
COc1ccc(CCNC(=O)CCCn2c(=O)c3ccccc3n(CC(=O)Nc3cccc(C)c3)c2=O)cc1OC | – | inactive: -2.54%
Cc1ccc2[nH]c(=O)c(CN(CCN3CCOCC3)C(=O)Nc3ccc(F)cc3)cc2c1 | inconclusive: 50.1 µM [inhibitor, partial curve] | –
O=C(COc1ccccc1/C=C1\SC(=O)NC1=O)Nc1ccc(F)cc1 | inconclusive: 70.8 µM [inhibitor, single point] | –
CCn1ccc2c(OCC(=O)NCCc3ccc(OC)c(OC)c3)cccc2c1=O | inconclusive: 89.1 µM [inhibitor, single point] | –
CCSc1nnc(N2C(=O)c3ccc(C(=O)c4ccc(C(=O)O)cc4)cc3C2=O)s1 | inconclusive: 89.1 µM [inhibitor, single point] | –
CCCCCC(=O)Nc1nc(C)c(-c2csc(Nc3cc(OC)ccc3OC)n2)s1 | active: 7.08 µM | –
COc1ccc(C2=NN(C(=O)CSc3cn(C)c4ccccc34)C(c3ccc(OC)cc3)C2)cc1 (stereo not given) | inconclusive: 28.2 µM [inhibitor, single point] | –
COc1ccc(-n2ncc(C(=O)N3CCN(Cc4ccccc4)CC3)c2C2CCN(C(=O)OC(C)(C)C)CC2)cc1 | inconclusive: 8.91 µM [inhibitor, partial curve, poor fit] | –
COc1ccc(C(=O)NNC(=O)c2ccc3ccccc3c2O)cc1 | inconclusive: 89.1 µM [inhibitor, single point] | –
Cc1ccc(C)c(N2CCN(C(=O)c3ccc(N4CCOCC4)c([N+](=O)[O-])c3)CC2)c1 | active: 44.7 µM | –
COc1ccccc1C(=O)Nc1ccc(OCC(=O)N2CCCCC2C)cc1 (stereo not given) | – | inactive: 12.9% [at 12.7 µM]
COc1ccccc1CN1CC(C(=O)N(C)CCc2nc3ccc(F)cc3[nH]2)CCC1=O (stereo not given) | – | inactive: -5.12% [at 102 µM]
Cc1ccc(C2(CCNCc3ccc(N(C)C)cc3)CCOC(C(C)C)C2)cc1 (stereo not given) | – | inconclusive: -91.5% [inhibitor]
COc1cc2ncnc(Nc3cccc(Cl)c3)c2cc1OC | inactive | –
COCCCNC(=S)Nc1cc(C)c(C)cc1C | inconclusive: 28.2 µM [inhibitor, partial curve, poor fit] | –
COCCCNC(=O)c1ccc(N2CCOCC2)c(NS(=O)(=O)c2ccc(OC)cc2)c1 | inconclusive: 3.16 µM [inhibitor, single point] | –
Cc1ccc(-c2nc(CSCC(=O)NC3CCN(Cc4ccccc4)CC3)c(C)o2)cc1 | inconclusive: 70.8 µM [inhibitor, single point] | –
O=C1NC(=S)S/C1=C1\Sc2ccccc2N1CCCS(=O)(=O)O | active: 10 µM | –
CCCCNc1nnc(SCC(=O)N2CCN(S(=O)(=O)c3ccc4ccccc4c3)CC2)s1 | inconclusive: 22.4 µM [inhibitor, single point] | –

Compound | Potency | activity, negative = inhibition
CCN1CCN(C(=O)C2CCN(S(=O)(=O)c3cccc4cccnc34)CC2)CC1 | inconclusive: 89.1 µM [inhibitor, single point] | –
COc1cc(C2c3c(n[nH]c3C)C(=O)N2c2ccc(C)cc2)ccc1O (stereo not given) | active: 50.1 µM | –
COc1cc(C(=O)Nc2c(C(=O)O)[nH]c3ccc(Br)cc23)cc(OC)c1OC | inconclusive: 89.1 µM [inhibitor, single point] | –
COCCn1c(C)cc(O)c(C(c2ccccc2)N2CCN(CCO)CC2)c1=O (stereo not given) | inconclusive: 39.8 µM [inhibitor, single point] | –
COc1ccccc1NC(=O)N(Cc1ccco1)Cc1cc2cccc(C)c2[nH]c1=O | inconclusive: 39.8 µM [inhibitor, single point] | –
Cn1nccc1C(=O)N/N=C/c1c(O)ccc2ccccc12 | – | inactive: 21% [at 102 µM]
CN(C(=O)CC1C(=O)NCCN1Cc1ccc(F)cc1)C1CCOCC1 (stereo not given) | inconclusive: 50.1 µM [inhibitor, partial curve] | –
COc1ccc(CNC(=O)C2CCCN2C(=O)NCc2ccccc2)cc1 (stereo not given) | – | inactive: 47.6% [at 102 µM]
COc1cc2c(cc1OC)C(c1ccc(N(C)C)cc1)NCC2 (stereo not given) | inconclusive: 89.1 µM [inhibitor, single point] | –
CCOC(=O)c1ccc(NC(=O)CCNS(=O)(=O)c2cccs2)cc1 | inconclusive: 89.1 µM [inhibitor, single point] | –
COCc1cc(CN2CCCC(C(=O)c3cccc(C(F)(F)F)c3)C2)ccc1OC (stereo not given) | – | inactive: 3.39% [at 102 µM]
Cc1ccc(Cl)cc1NC(=O)CCCn1c(=O)c2cccn2c2ccccc21 | inconclusive: 10 µM [inhibitor, partial curve] | –
Clc1ccc(OCc2nc(-c3ccc(-n4cccc4)cc3)no2)cc1 | – | inactive: -0.854%
CC1=CC2=NC(=O)/C(=C\c3cccn3CCOc3cc(C)cc(C)c3)C(=N)N2O1 | active: 39.8 µM | –
O=[N+]([O-])c1cc(C(F)(F)F)cc([N+](=O)[O-])c1NCCN1CCNCC1 | – | inactive: 11.3% [at 0.501 µM]
N#Cc1nc(-c2ccccc2Cl)oc1NCC1CCCO1 (stereo not given) | inconclusive: 50.1 µM [inhibitor, partial curve] | –
COc1ccc(C(=O)NCc2nnc(SCC(=O)N3CCc4ccccc43)n2CCc2ccccc2)cc1 | inconclusive: 79.4 µM [inhibitor, single point] | –
CC(=O)c1ccc(N2CCN(C(=O)Nc3ccc(Cl)cc3)CC2)cc1 | – | inactive: 4.66% [at 102 µM]
COc1ccc2c3c(c(=O)oc2c1)C1O[C@](c2ccsc2)(Cc2cc(C#N)ccc21)O3 | inconclusive: 1.41 µM [inhibitor, single point] | –
Cc1cccc(N2CCN(C(=O)c3ccc4c(c3)c(C)c(C)n4C)CC2)c1C | – | inactive: -3.93%
CCOc1ccc(NC(=O)N2CCC(CN3CCCCCC3)CC2)cc1 | inconclusive: 12.6 µM [inhibitor, partial curve, poor fit] | –
CN1CCN(CCCNC(=O)Nc2ccc([N+](=O)[O-])cc2)CC1 | inconclusive: 89.1 µM [inhibitor, single point] | –
CCn1c(-c2cc(-c3cc(OC)ccc3OC)nc3ccccc23)n[nH]c1=S | active: 3.55 µM | –
Cc1cc(C)cc(NC(=O)CSc2oc(-c3ccco3)nc2S(=O)(=O)c2ccccc2)c1 | – | inactive: -23.7%

Compound | Potency | activity, negative = inhibition
CCOc1ccc(NC(=O)CN(C)C(=O)c2cc([N+](=O)[O-])ccc2N2CCOCC2)cc1OCC | – | inactive: -31.8%
Cc1c(OCC(=O)N2CCC(C(=O)NCCCC(=O)O)CC2)ccc2c1oc(=O)c1ccccc12 | inconclusive: 17.8 µM [inhibitor, single point] | –
CC(=O)N1CCc2c(sc3nc(SCC(N)=O)n(-c4ccc(F)c(Cl)c4)c(=O)c23)C1 | inconclusive: 20 µM [inhibitor, partial curve, poor fit] | –
O=C(CSc1nc2ccc(Cl)cc2[nH]1)N1CCN(C(=O)c2ccco2)CC1 | inconclusive: 22.4 µM [inhibitor, single point] | –
CCSc1nc(C)c(CC)c(C)c1C(N)=O | inconclusive: 2 µM [inhibitor, full curve, poor fit] | –
Cc1c(C(c2ccc(O)cc2)c2c(C)n(C)n(-c3ccccc3)c2=O)c(=O)n(-c2ccccc2)n1C | inconclusive: 89.1 µM [inhibitor, single point] | –
Cc1oc(C(=O)O)cc1COc1cccc2cccnc12 | active: 79.4 µM | –
Cc1ccc(N=Nc2ccc3ccccc3c2O)cc1 | active: 2 µM | –
Cc1ccc(-n2nc3c(N4CCC(C(=O)NCCc5cccs5)CC4)nnc(C)c3c2C)cc1 | – | inactive: 2.09% [at 0.0925 µM]
COCCCNC(=S)N/N=C/c1ccc2c(c1)OCO2 | – | inactive: 2.01% [at 102 µM]
N#Cc1nc(-c2cccs2)oc1NCc1ccc2c(c1)OCO2 | active: 44.7 µM | –
CC(Cn1nnc2ccccc21)C(=O)O (stereo not given) | inconclusive: 79.4 µM [inhibitor, partial curve, poor fit] | –
CCN(C(=O)C(C)OC(=O)CCCNC(=O)c1ccc(Cl)cc1)c1ccccc1 (stereo not given) | inconclusive: 79.4 µM [inhibitor, partial curve, poor fit] | –
Cc1nn(C(C)C(=O)NCCC2=CCCCC2)c(=O)c2nn(-c3ccccc3)c(C)c12 (stereo not given) | – | inactive: 18.6% [at 102 µM]
O=C(COc1ncnc2sccc12)N1CCN(c2ccccc2)CC1 | inconclusive: 28.2 µM [inhibitor, single point] | –
CCCCn1c(N)c(N(CCOC)C(=O)CN2C(=O)C3CCCCC3C2=O)c(=O)[nH]c1=O (stereo not given) | – | inactive: -1.25%
Cn1c(-c2ccc(Cl)cc2)cnc1NCc1cc2c(cc1[N+](=O)[O-])OCO2 | active: 20 µM | –
Cc1ccc(C(=O)Nc2ncc3c(Cl)cccc3n2)cc1 | – | inactive: 98.5%
COc1cc(/C=C(\C#N)C(=O)NCCc2ccccc2)cc(OC)c1O | active: 31.6 µM | –
Cc1c(/C(O)=C2/C(=O)C(=O)N(CCN3CCOCC3)C2c2ccccn2)cnn1-c1ccccc1 (stereo not given) | active: 7.94 µM | –
O=C(O)c1ccccc1O | inactive | –
CN1CCN(C/C(=C2/N=C(c3ccccc3)OC2=O)N(C)C)CC1 | – | inconclusive: -70.5% [inhibitor]
